Data from PMC12677587.
Residue numbers refer to the chain shown, from its start. Numbers in names are those of the source. These are yes or no findings as the source states them, for the method shown. For part of these data: Binding seen in cells or lysates may run through a third protein. Some results given as binding are weak or reduced against the parent protein; the word gives no strength. Where a sequence is shown, tags or fusion partners need not be part of it.

Protein sequences, listed by entry. Tags and fused reporters are not part of them.
UniProt Q06609: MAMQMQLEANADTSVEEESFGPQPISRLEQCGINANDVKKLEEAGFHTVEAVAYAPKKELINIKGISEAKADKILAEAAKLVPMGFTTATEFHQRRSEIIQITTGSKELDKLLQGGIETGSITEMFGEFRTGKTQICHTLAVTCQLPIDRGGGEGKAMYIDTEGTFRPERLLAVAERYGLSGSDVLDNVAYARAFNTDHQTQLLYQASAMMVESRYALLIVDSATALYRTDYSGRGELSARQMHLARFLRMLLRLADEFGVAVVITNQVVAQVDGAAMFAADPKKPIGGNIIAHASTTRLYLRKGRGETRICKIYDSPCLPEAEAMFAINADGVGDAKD

T1: GST-RFWD3 (UniProt Q6PCD5)
T1 sequence: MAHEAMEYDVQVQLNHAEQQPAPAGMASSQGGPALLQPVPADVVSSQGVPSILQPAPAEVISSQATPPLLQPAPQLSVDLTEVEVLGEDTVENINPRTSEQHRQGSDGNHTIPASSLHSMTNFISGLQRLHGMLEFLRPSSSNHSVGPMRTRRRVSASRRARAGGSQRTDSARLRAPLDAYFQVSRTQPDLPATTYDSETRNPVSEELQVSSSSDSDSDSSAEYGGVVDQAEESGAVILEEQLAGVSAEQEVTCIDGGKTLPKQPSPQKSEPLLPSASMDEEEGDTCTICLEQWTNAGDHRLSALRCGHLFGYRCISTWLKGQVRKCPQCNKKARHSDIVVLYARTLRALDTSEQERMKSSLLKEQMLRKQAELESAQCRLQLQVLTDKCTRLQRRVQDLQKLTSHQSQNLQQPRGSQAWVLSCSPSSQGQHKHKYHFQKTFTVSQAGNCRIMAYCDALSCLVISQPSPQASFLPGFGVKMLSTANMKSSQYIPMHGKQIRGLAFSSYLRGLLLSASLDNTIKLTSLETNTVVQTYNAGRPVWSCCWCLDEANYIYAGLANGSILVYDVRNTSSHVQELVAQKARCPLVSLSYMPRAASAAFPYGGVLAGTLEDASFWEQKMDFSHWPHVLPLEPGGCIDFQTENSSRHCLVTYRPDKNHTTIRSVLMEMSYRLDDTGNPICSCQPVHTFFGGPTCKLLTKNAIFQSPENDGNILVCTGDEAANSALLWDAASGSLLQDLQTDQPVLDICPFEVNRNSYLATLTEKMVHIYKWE

T2: RFWD3-HA (UniProt Q6PCD5)
T2 sequence: T1 sequence

B1: His-UHRF1 truncation 1–755 (domain or fragment, UniProt Q96T88-1 1-755)
chain: MWIQVRTMDGRQTHTVDSLSRLTKVEELRRKIQELFHVEPGLQRLFYRGKQMEDGHTLFDYEVRLNDTIQLLVRQSLVLPHSTKERDSELSDTDSGCCLGQSESDKSSTHGEAAAETDSRPADEDMWDETELGLYKVNEYVDARDTNMGAWFEAQVVRVTRKAPSRDEPCSSTSRPALEEDVIYHVKYDDYPENGVVQMNSRDVRARARTIIKWQDLEVGQVVMLNYNPDNPKERGFWYDAEISRKRETRTARELYANVVLGDDSLNDCRIIFVDEVFKIERPGEGSPMVDNPMRRKSGPSCKHCKDDVNRLCRVCACHLCGGRQDPDKQLMCDECDMAFHIYCLDPPLSSVPSEDEWYCPECRNDASEVVLAGERLRESKKKAKMASATSSSQRDWGKGMACVGRTKECTIVPSNHYGPIPGIPVGTMWRFRVQVSESGVHRPHVAGIHGRSNDGAYSLVLAGGYEDDVDHGNFFTYTGSGGRDLSGNKRTAEQSCDQKLTNTNRALALNCFAPINDQEGAEAKDWRSGKPVRVVRNVKGGKNSKYAPAEGNRYDGIYKVVKYWPEKGKSGFLVWRYLLRRDDDEPGPWTKEGKDRIKKLGLTMQYPEGYLEALANREREKENSKREEEEQQEGGFASPRTGKGKWKRKSAGGGPSRAGSPRRTSKKTKVEPYSLTAQQSSLIREDKSNAKLWNEVLASLKDRPASGSPFQLFLSKVEETFQCICCQELVFRPITTVCQHNVCKDCLDRSFRAQ
B2: His-UHRF1 truncation 1–753 (domain or fragment, UniProt Q96T88-1 1-753)
chain: MWIQVRTMDGRQTHTVDSLSRLTKVEELRRKIQELFHVEPGLQRLFYRGKQMEDGHTLFDYEVRLNDTIQLLVRQSLVLPHSTKERDSELSDTDSGCCLGQSESDKSSTHGEAAAETDSRPADEDMWDETELGLYKVNEYVDARDTNMGAWFEAQVVRVTRKAPSRDEPCSSTSRPALEEDVIYHVKYDDYPENGVVQMNSRDVRARARTIIKWQDLEVGQVVMLNYNPDNPKERGFWYDAEISRKRETRTARELYANVVLGDDSLNDCRIIFVDEVFKIERPGEGSPMVDNPMRRKSGPSCKHCKDDVNRLCRVCACHLCGGRQDPDKQLMCDECDMAFHIYCLDPPLSSVPSEDEWYCPECRNDASEVVLAGERLRESKKKAKMASATSSSQRDWGKGMACVGRTKECTIVPSNHYGPIPGIPVGTMWRFRVQVSESGVHRPHVAGIHGRSNDGAYSLVLAGGYEDDVDHGNFFTYTGSGGRDLSGNKRTAEQSCDQKLTNTNRALALNCFAPINDQEGAEAKDWRSGKPVRVVRNVKGGKNSKYAPAEGNRYDGIYKVVKYWPEKGKSGFLVWRYLLRRDDDEPGPWTKEGKDRIKKLGLTMQYPEGYLEALANREREKENSKREEEEQQEGGFASPRTGKGKWKRKSAGGGPSRAGSPRRTSKKTKVEPYSLTAQQSSLIREDKSNAKLWNEVLASLKDRPASGSPFQLFLSKVEETFQCICCQELVFRPITTVCQHNVCKDCLDRSFR
B3: His-UHRF1 truncation 1–745 (domain or fragment, UniProt Q96T88-1 1-745)
chain: MWIQVRTMDGRQTHTVDSLSRLTKVEELRRKIQELFHVEPGLQRLFYRGKQMEDGHTLFDYEVRLNDTIQLLVRQSLVLPHSTKERDSELSDTDSGCCLGQSESDKSSTHGEAAAETDSRPADEDMWDETELGLYKVNEYVDARDTNMGAWFEAQVVRVTRKAPSRDEPCSSTSRPALEEDVIYHVKYDDYPENGVVQMNSRDVRARARTIIKWQDLEVGQVVMLNYNPDNPKERGFWYDAEISRKRETRTARELYANVVLGDDSLNDCRIIFVDEVFKIERPGEGSPMVDNPMRRKSGPSCKHCKDDVNRLCRVCACHLCGGRQDPDKQLMCDECDMAFHIYCLDPPLSSVPSEDEWYCPECRNDASEVVLAGERLRESKKKAKMASATSSSQRDWGKGMACVGRTKECTIVPSNHYGPIPGIPVGTMWRFRVQVSESGVHRPHVAGIHGRSNDGAYSLVLAGGYEDDVDHGNFFTYTGSGGRDLSGNKRTAEQSCDQKLTNTNRALALNCFAPINDQEGAEAKDWRSGKPVRVVRNVKGGKNSKYAPAEGNRYDGIYKVVKYWPEKGKSGFLVWRYLLRRDDDEPGPWTKEGKDRIKKLGLTMQYPEGYLEALANREREKENSKREEEEQQEGGFASPRTGKGKWKRKSAGGGPSRAGSPRRTSKKTKVEPYSLTAQQSSLIREDKSNAKLWNEVLASLKDRPASGSPFQLFLSKVEETFQCICCQELVFRPITTVCQHNVCK
B4: His-UHRF1 truncation 1–750 (domain or fragment, UniProt Q96T88-1 1-750)
chain: MWIQVRTMDGRQTHTVDSLSRLTKVEELRRKIQELFHVEPGLQRLFYRGKQMEDGHTLFDYEVRLNDTIQLLVRQSLVLPHSTKERDSELSDTDSGCCLGQSESDKSSTHGEAAAETDSRPADEDMWDETELGLYKVNEYVDARDTNMGAWFEAQVVRVTRKAPSRDEPCSSTSRPALEEDVIYHVKYDDYPENGVVQMNSRDVRARARTIIKWQDLEVGQVVMLNYNPDNPKERGFWYDAEISRKRETRTARELYANVVLGDDSLNDCRIIFVDEVFKIERPGEGSPMVDNPMRRKSGPSCKHCKDDVNRLCRVCACHLCGGRQDPDKQLMCDECDMAFHIYCLDPPLSSVPSEDEWYCPECRNDASEVVLAGERLRESKKKAKMASATSSSQRDWGKGMACVGRTKECTIVPSNHYGPIPGIPVGTMWRFRVQVSESGVHRPHVAGIHGRSNDGAYSLVLAGGYEDDVDHGNFFTYTGSGGRDLSGNKRTAEQSCDQKLTNTNRALALNCFAPINDQEGAEAKDWRSGKPVRVVRNVKGGKNSKYAPAEGNRYDGIYKVVKYWPEKGKSGFLVWRYLLRRDDDEPGPWTKEGKDRIKKLGLTMQYPEGYLEALANREREKENSKREEEEQQEGGFASPRTGKGKWKRKSAGGGPSRAGSPRRTSKKTKVEPYSLTAQQSSLIREDKSNAKLWNEVLASLKDRPASGSPFQLFLSKVEETFQCICCQELVFRPITTVCQHNVCKDCLDR
B5: His-UHRF1 truncation 1–724 (domain or fragment, UniProt Q96T88-1 1-724)
chain: MWIQVRTMDGRQTHTVDSLSRLTKVEELRRKIQELFHVEPGLQRLFYRGKQMEDGHTLFDYEVRLNDTIQLLVRQSLVLPHSTKERDSELSDTDSGCCLGQSESDKSSTHGEAAAETDSRPADEDMWDETELGLYKVNEYVDARDTNMGAWFEAQVVRVTRKAPSRDEPCSSTSRPALEEDVIYHVKYDDYPENGVVQMNSRDVRARARTIIKWQDLEVGQVVMLNYNPDNPKERGFWYDAEISRKRETRTARELYANVVLGDDSLNDCRIIFVDEVFKIERPGEGSPMVDNPMRRKSGPSCKHCKDDVNRLCRVCACHLCGGRQDPDKQLMCDECDMAFHIYCLDPPLSSVPSEDEWYCPECRNDASEVVLAGERLRESKKKAKMASATSSSQRDWGKGMACVGRTKECTIVPSNHYGPIPGIPVGTMWRFRVQVSESGVHRPHVAGIHGRSNDGAYSLVLAGGYEDDVDHGNFFTYTGSGGRDLSGNKRTAEQSCDQKLTNTNRALALNCFAPINDQEGAEAKDWRSGKPVRVVRNVKGGKNSKYAPAEGNRYDGIYKVVKYWPEKGKSGFLVWRYLLRRDDDEPGPWTKEGKDRIKKLGLTMQYPEGYLEALANREREKENSKREEEEQQEGGFASPRTGKGKWKRKSAGGGPSRAGSPRRTSKKTKVEPYSLTAQQSSLIREDKSNAKLWNEVLASLKDRPASGSPFQLFLSKVEETFQC
B6: FLAG-UHRF1 (protein, UniProt Q96T88-1 1-793)
chain: MWIQVRTMDGRQTHTVDSLSRLTKVEELRRKIQELFHVEPGLQRLFYRGKQMEDGHTLFDYEVRLNDTIQLLVRQSLVLPHSTKERDSELSDTDSGCCLGQSESDKSSTHGEAAAETDSRPADEDMWDETELGLYKVNEYVDARDTNMGAWFEAQVVRVTRKAPSRDEPCSSTSRPALEEDVIYHVKYDDYPENGVVQMNSRDVRARARTIIKWQDLEVGQVVMLNYNPDNPKERGFWYDAEISRKRETRTARELYANVVLGDDSLNDCRIIFVDEVFKIERPGEGSPMVDNPMRRKSGPSCKHCKDDVNRLCRVCACHLCGGRQDPDKQLMCDECDMAFHIYCLDPPLSSVPSEDEWYCPECRNDASEVVLAGERLRESKKKAKMASATSSSQRDWGKGMACVGRTKECTIVPSNHYGPIPGIPVGTMWRFRVQVSESGVHRPHVAGIHGRSNDGAYSLVLAGGYEDDVDHGNFFTYTGSGGRDLSGNKRTAEQSCDQKLTNTNRALALNCFAPINDQEGAEAKDWRSGKPVRVVRNVKGGKNSKYAPAEGNRYDGIYKVVKYWPEKGKSGFLVWRYLLRRDDDEPGPWTKEGKDRIKKLGLTMQYPEGYLEALANREREKENSKREEEEQQEGGFASPRTGKGKWKRKSAGGGPSRAGSPRRTSKKTKVEPYSLTAQQSSLIREDKSNAKLWNEVLASLKDRPASGSPFQLFLSKVEETFQCICCQELVFRPITTVCQHNVCKDCLDRSFRAQVFSCPACRYDLGRSYAMQVNQPLQTVLNQLFPGYGNGR
B7: FLAG-UHRF1^S661A (protein, UniProt Q96T88-1 1-793)
chain: B6 chain with S661A
B8: FLAG-UHRF1^S661D (protein, UniProt Q96T88-1 1-793)
chain: B6 chain with S661D
B9: FLAG-UHRF1^NR2A (protein, UniProt Q96T88-1 1-793)
chain: B6 chain with N791A, R793A

The binders below were run against T1, GST-RFWD3 (assay: pull-down; GST pull-down: purified GST-RFWD3 on Glutathione resin, purified His-tagged UHRF1 proteins, 3 h at 4 °C in BCA buffer (20 mM Tris-HCl pH 7.4, 100 mM NaCl); washes with 300 mM NaCl; western blotting; both purified).

binding | Binder
no binding | B1
no binding | B2
no binding | B3
no binding | B4
no binding | B5

The binders below were run against RAD51-HA (UniProt Q06609) (assay: co-IP; ectopically expressed tagged proteins in HEK293T; lysis in NETN buffer (20 mM Tris-HCl pH 7.5, 1 mM EDTA, 100 mM NaCl, 0.5% NP-40); anti-FLAG or anti-HA affinity beads, 3 h, 4 °C; washes with NETN with 200 mM NaCl; western blotting).

binding | Binder
binds | B6
binds | B7
binds | B8

What follows are binders tested against T2, RFWD3-HA in the same assay as above.

binding | Binder
binds | B6
binds | B7
no binding | B9
binds | B8
